Source: PubChem BioAssay AID624417 (National Center for Advancing Translational Sciences (NCATS), 2012)
The campaign covered roughly 410,000 compounds. About 6,400 (1.6%) were called active. This list was built around the results that the source calls inconclusive (neither active nor inactive); the mix of calls is not that of the screen. Calls come from the whole dose curve; as a rule, active = well fitted inhibition curve with a large enough effect; inconclusive = small, poorly fitted or top-dose-only effect; inactive = no such curve, though single readings can be large or run the other way. Potencies of inconclusive entries are left out as doubtful fits.

target: Glucagon-like peptide 1 receptor (Homo sapiens) (UniProt P43220); experiment: qHTS of GLP-1 Receptor Inverse Agonists (Inhibition Mode); details: HEK293 GLP-1R CRE-luciferase, luminescence, 24 h, GLP-1R form is constitutively active; series mostly up to 38.3 µM; note: nearly all actives have a fitted effect of over 55% in size
How it was run: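 GLP-1R inverse agonism mode: basal reporter luminescence in engineered HEK293 cells measured after one day of compound exposure at 37 deg C, with a 12 min room-temperature detection step.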
Potency is the fitted concentration of half-maximal effect; tags give direction and shape of the fitted curve.

UniProt P43220, sequence (P43220 whole entry, looked up): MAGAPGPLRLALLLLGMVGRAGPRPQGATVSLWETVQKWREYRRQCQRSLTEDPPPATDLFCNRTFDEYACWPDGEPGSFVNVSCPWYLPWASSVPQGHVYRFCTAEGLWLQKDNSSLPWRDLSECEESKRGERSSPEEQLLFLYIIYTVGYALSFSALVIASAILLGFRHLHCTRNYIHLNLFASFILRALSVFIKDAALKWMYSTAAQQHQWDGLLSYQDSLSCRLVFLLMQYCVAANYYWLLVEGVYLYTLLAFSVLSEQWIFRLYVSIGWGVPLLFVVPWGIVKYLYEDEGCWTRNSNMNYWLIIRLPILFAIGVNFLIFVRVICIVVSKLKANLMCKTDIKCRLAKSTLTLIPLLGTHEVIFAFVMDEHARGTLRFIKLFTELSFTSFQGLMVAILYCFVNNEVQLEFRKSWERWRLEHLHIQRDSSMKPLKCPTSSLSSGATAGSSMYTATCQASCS

| SMILES | Potency |
| --- | --- |
| O=C(NCc1ccc(F)cc1)C(=O)Nc1nc(C23CC4CC(CC(C4)C2)C3)cs1 | inconclusive [inhibitor, full curve, poor fit] |
| Nc1c(-c2ccccc2)sc2ccc3ccccc3[n+]12 | inconclusive [inhibitor, single point] |
| CCc1cccc(C)c1NC(=S)NCc1ccccc1 | inconclusive [inhibitor, single point] |
| CC(NC(=S)NC1CCCCC1)c1ccc(C(C)(C)C)cc1 (configuration not stated) | inconclusive [inhibitor, partial curve, poor fit] |
| Cc1ccc(C(Nc2ccccn2)c2ccc3cccnc3c2O)cc1 (configuration not stated) | inconclusive [inhibitor, partial curve, poor fit] |
| OCCN1CCN(c2nc(-c3ccccc3)c3cc(Cl)ccc3n2)CC1 | active: 3.55 µM |
| CCOC(=O)n1c(=O)n(Cc2cccc(C)c2)c2ccccc21 | inconclusive [inhibitor, single point] |
| COc1ccccc1Nc1cc2cc(Br)ccc2c(=O)[nH]1 | inconclusive [inhibitor, full curve, poor fit] |
| Cc1cccc(C)c1OCCN1C(=O)NC(C)(c2ccccc2)C1=O (configuration not stated) | inconclusive [inhibitor, single point] |
| COc1cc(Cl)c(NS(=O)(=O)c2ccc3c(c2)CC(C)N3C(=O)C2CCC2)c(OC)c1 (configuration not stated) | inconclusive [inhibitor, partial curve, poor fit] |
| COc1ccc(N(Cc2cc3ccccc3[nH]c2=O)S(=O)(=O)c2ccccc2)cc1 | inconclusive [inhibitor, partial curve, poor fit] |
| Cc1cccc(COc2ccc(/C=C3/C(=O)N(C)C(=S)N3C)cc2)c1 | inactive |
| CCN(CC)c1ccc(C(=O)OCC(=O)NC(C)(C)C)cc1 | inconclusive [inhibitor, partial curve, poor fit] |
| CCCN1C(=O)c2ccccc2NC1c1ccc(Cl)cc1 (configuration not stated) | inconclusive [inhibitor, partial curve, poor fit] |
| CCCCNCCCOc1cc(Cl)ccc1Cl | inconclusive [inhibitor, partial curve, poor fit] |
| CCc1ccc(NC(=O)CC2C(=O)N(c3cccc(OC)c3)C(=O)N2Cc2ccco2)cc1 (configuration not stated) | inactive |
| O=C(NC(=S)N1CCOCC1)c1ccc([N+](=O)[O-])cc1 | inactive |
| C=C(Cl)COc1ccc2c(CCCC)cc(=O)oc2c1 | inconclusive [inhibitor, single point] |
| Clc1ccc(-c2nc3cc(CN4CCCCC4)ccc3o2)cc1 | inconclusive [inhibitor, single point] |
| COc1ccc(Oc2cc(F)nc(N)n2)cc1 | inactive |
| Cc1ccc(/C=C/c2onc(C)c2S(=O)(=O)N2CCC(C(=O)N3CC(C)Oc4ccccc43)CC2)cc1 (configuration not stated) | inconclusive [inhibitor, full curve, poor fit] |

| SMILES | Potency |
| --- | --- |
| CC(C)N(Cc1nc(-c2ccc(Cl)cc2)no1)Cc1nccn1C | inconclusive [inhibitor, partial curve, poor fit] |
| COc1cccc(-c2nc(NCc3ccccc3)c3ccccc3n2)c1O | inconclusive [inhibitor, full curve, poor fit] |
| O=C(NCc1ccc(F)cc1)C1CCCN(S(=O)(=O)c2ccc(Br)s2)C1 (configuration not stated) | inconclusive [inhibitor, partial curve, poor fit] |
| O=C(Nc1nc2ccccc2s1)C1c2ccccc2Oc2ccccc21 | inconclusive [inhibitor, single point] |
| COC(=O)c1ccc(COC(=O)c2cccnc2Cl)cc1 | inactive |
| CCCCCC(=O)O[C@]1(C(C)=O)CC[C@H]2[C@@H]3CCC4=CC(=O)CC[C@]4(C)[C@H]3CC[C@@]21C | inconclusive [inhibitor, partial curve, poor fit] |
| C=CCOc1ccc(C(=O)c2ccccc2)c(OCC(=O)NC2(C#N)CCCC2)c1 | inconclusive [inhibitor, partial curve, poor fit] |
| Cc1c(Cl)cccc1-n1ncc(C(=O)N2CCc3ccccc3C2)c1C1CCN(C(=O)OC(C)(C)C)CC1 | inactive |
| Nc1c(C(=O)N2CCCCC2)sc(=S)n1-c1ccccc1 | inactive |
| COc1ccc(CN(C)C[C@H]2OCCCC[C@H](C)Oc3ccc(NC(=O)CCC(F)(F)F)cc3C(=O)N([C@@H](C)CO)C[C@@H]2C)cc1 | inconclusive [inhibitor, single point] |
| CCN(CC)c1ccc(-c2nn3c(-c4n[nH]c5c4CCC5)nnc3s2)cc1 | inconclusive [inhibitor, partial curve, poor fit] |
| O=[N+]([O-])c1ccc(O)c(N=Cc2sc3ccccc3c2O)c1 | inconclusive [inhibitor, partial curve] |
| CC(=O)N(CCc1ccccc1)c1ccc2c(c1)C1CC2CCN1C(=O)OCc1ccccc1 (configuration not stated) | inconclusive [inhibitor, partial curve, poor fit] |
| CC1CCCN(C(=O)CSc2nnc(-c3ccc(O)cc3)o2)C1 (configuration not stated) | inconclusive [inhibitor, full curve, poor fit] |
| Cc1ccc(CN2CCC[C@]3(N[C@H](c4ccc(C(F)(F)F)cc4)[C@@H]4C(=O)N(Cc5ccccc5)C(=O)[C@@H]43)C2=O)cc1 | inconclusive [inhibitor, partial curve, poor fit] |
| CCOC(=O)[C@]12CCCC=C1N(Cc1ccc3c(c1)OCO3)C(=O)[C@H](CC(=O)NCCC(C)C)C2 | inconclusive [inhibitor, single point] |
| O=C(c1ccc(-c2ccccc2)cc1)N1CCN(Cc2ccccn2)CC1 | inconclusive [inhibitor, partial curve] |
| CCN(CC(=O)NCc1cccs1)C(=O)/C=C/c1cccc(Br)c1 | inconclusive [inhibitor, single point] |
| CCc1ccc(OCC(=O)N(Cc2cccs2)c2ccc(Cl)cc2)cc1 | inconclusive [inhibitor, partial curve, poor fit] |
| COc1ccc(NC(=O)C2CCCN(CCCc3ccccc3)C2)cc1OCC(C)C (configuration not stated) | inconclusive [inhibitor, single point] |
| COc1ccc(Cl)cc1NS(=O)(=O)c1cccc(C(=O)NC2CCN(Cc3ccccc3)CC2)c1 | inconclusive [inhibitor, partial curve, poor fit] |

| SMILES | Potency |
| --- | --- |
| Clc1cccc(Cn2ncc3ccccc32)c1 | inconclusive [inhibitor, partial curve, poor fit] |
| CC1(C)C[C@@H]1C(=O)N/C(=C\CCCCSC[C@H](N)C(=O)O)C(=O)O | inactive |
| COc1ccc(C(=O)N2CCCCC2c2cc(C(=O)NCc3ccc(F)cc3)no2)cc1 (configuration not stated) | inconclusive [inhibitor, single point] |
| Cc1ccc2oc(-c3ccco3)nc2c1 | inactive |
| O=C(Nc1ccc2c(c1)CCC2)c1ncoc1-c1ccccc1F | inconclusive [inhibitor, partial curve, poor fit] |
| CCOCCCNC(=O)C1CCCN(Cc2nc(-c3ccc(CC)cc3)oc2C)C1 (configuration not stated) | inconclusive [inhibitor, single point] |
| Fc1ccc(/C=N/NC(=S)NCCc2ccccc2)cc1F | inconclusive [inhibitor, single point] |
| Cc1ccc(S(=O)(=O)N2C[C@H]3C(=O)C[C@@H](c4cccc(Cl)c4)N(S(=O)(=O)c4ccc(C)cc4)[C@H]3C[C@H]2c2cccc(Cl)c2)cc1 | inconclusive [inhibitor, partial curve] |
| CC(C)NC(=O)COc1coc(CN2CCN(Cc3ccccc3)CC2)cc1=O | inactive |
| CCN(CC1COc2ccccc2O1)C(=S)Nc1ccc(F)cc1 (configuration not stated) | inconclusive [inhibitor, partial curve, poor fit] |
| COc1ccccc1N(CC(=O)Nc1ccc(F)c(F)c1)S(C)(=O)=O | inconclusive [inhibitor, single point] |
| Cc1ccc(C(=O)CSC2=C(C#N)C(c3ccco3)C3=C(CC(C)(C)CC3=O)N2)cc1 (configuration not stated) | inconclusive [inhibitor, partial curve, poor fit] |
| CCCCC(=O)NC(c1cccs1)c1cc(Cl)c2cccnc2c1O (configuration not stated) | inconclusive [inhibitor, partial curve] |
| Cc1ccc(NC(=O)CN(C)Cc2cccs2)cc1Cl | inconclusive [inhibitor, single point] |
| Cc1c(C)n(Cc2ccccc2)c2ccc(C(=O)NC(C)c3ccccc3)cc12 (configuration not stated) | inconclusive [inhibitor, partial curve, poor fit] |
| Cc1ccc(Cn2c(CNS(=O)(=O)c3c(C)cc(C)cc3C)nc3cccnc32)cc1 | inconclusive [inhibitor, single point] |
| CC(=O)Nc1nonc1-c1nnc(SCC(=O)Nc2ccc(F)cc2F)n1-c1ccccc1 | inactive |
| CCOC(=O)c1ccc(NC(=S)NC2CC(C)(C)NC(C)(C)C2)cc1 | inconclusive [inhibitor, single point] |
| COC(=O)c1ccc2nc(C)cc(Nc3ccccc3C)c2c1 | inactive |
| CNC(=S)N/N=C1\C(=O)c2cccc3cccc1c23 | inconclusive [inhibitor, full curve, poor fit] |
